Assay results reported in patent US20210038681A1, “PHARMACEUTICAL COMPOSITION FOR TREATING VIRAL HEPATITIS C” (priority 2018, published 2021).
pEC50: −log10 of the molar value. Several values for one entry are separate records, joined by “and”; a condition that tells them apart may be missing. Equal entries are not always repeated.

System: HCV genotypes 1a, 1b, 2a NS5A, 3a NS5A, 4a NS5A, 5a NS5A, 6a NS5A, and 7a NS5A replicon cells
Assay: Standard 3-day HCV replicon assays, summary over genotypes
Assay type: cell-based

COC(=O)N[C@H](C(=O)N1CCC[C@H]1c1ncc(-c2ccc3cc(-c4ccc5nc([C@@H]6CCCN6C(=O)[C@@H](NC(=O)OC)C(C)C)[nH]c5c4)ccc3c2)[nH]1)C(C)C [ASC16, Ravidasvir]
EC90 (Hepatitis C virus, read-out: EC90 for all major HCV genotypes): ≤ 3.35 nM and < 0.003 µg/mL | pEC50 (Hepatitis C virus, read-out: susceptible concentrations (EC50) against other HCV genotypes): 8.94 to 10.40 | concentration at which inhibition rate of replication of genotype 1 virus reached 90% (genotype 1 virus (1a and 1b)): ≤ 0.32 nM and ≤ 0.24 ng/mL
